# From PubChem BioAssay AID686978 (National Center for Advancing Translational Sciences (NCATS), 2013)
# The campaign covered roughly 420,000 compounds. About 64,000 (15%) were called active. The inconclusive results got no clear call from the source; some entries with a clear call stand among them for comparison. Calls come from the whole dose curve; as a rule, active = well fitted inhibition curve with a large enough effect; inconclusive = small, poorly fitted or top-dose-only effect; inactive = flat fitted curve, though single readings scatter. Potencies of inconclusive entries are left out as doubtful fits.
# Experiment: qHTS for Inhibitors of human tyrosyl-DNA phosphodiesterase 1 (TDP1): qHTS in cells in absence of CPT; note: nearly all actives have a fitted effect of over 55% in size
# Details: DT40 Tdp1-/- hTDP1 cells, no CPT, ATP luminescence, 48 h; activity change, negative = growth inhibition: at 46.2 µM (top of the series)
# Method in brief: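 Luminescent ATP content (CellTiter-Glo) served as the growth readout. Knockout chicken DT40 cells expressing human TDP1 were exposed to compounds without camptothecin for a minimum 48 hr at 37 °C.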
# % is set by controls: 0 for no effect and ±100 for the full control effect; potency is the fitted concentration of half-maximal effect; tags give direction and shape of the fitted curve.
Structure (SMILES),Potency,"activity change, negative = growth inhibition"
CN(Cc1ccccc1OCCO)CC1CCCN(CCc2ccc(Cl)cc2)C1 (centres undefined),"inconclusive [inhibitor, single point]",
COc1ccc(C(=O)C2CCCN(C(=O)c3cccc(N4CCCC4=O)c3)C2)cc1OC (centres undefined),,inactive: -3.19%
CN(C(=O)C1CCCCN1S(=O)(=O)c1ccccc1)c1ccccc1 (centres undefined),"inconclusive [inhibitor, partial curve]",
N#Cc1nc(COc2ccc(-c3ccccc3)cc2)oc1NCc1cccnc1,active: 25.9 µM,
COc1ccccc1C1CN(Cc2cccc3nccnc23)Cc2ccccc2O1 (centres undefined),,inactive: -5.65%
COc1cc2c(cc1NC(=O)c1ccc(C)c([N+](=O)[O-])c1)oc1ccccc12,"inconclusive [inhibitor, partial curve]",
COc1ccc(-c2csc(NS(=O)(=O)c3ccc([N+](=O)[O-])cc3)n2)cc1,"inconclusive [inhibitor, single point]",
CC1=NN(Cc2ccccc2)C(=O)C1C(c1ccncc1)C(C#N)C#N (centres undefined),"inconclusive [inhibitor, partial curve]",
N#CCC(=O)Nc1ccc(C(=O)OCC(=O)C23CC4CC(CC(C4)C2)C3)cc1,"inconclusive [inhibitor, single point]",
COc1cc(C2C(C#N)=C(C)NC(C)=C2C#N)cc(OC)c1OC,,inactive: -8.69%
COc1ccc(C2C(C#N)=C(N)OC3=C2C(=O)CCC3)cc1Cn1nc(C)c([N+](=O)[O-])c1C (centres undefined),"inconclusive [inhibitor, partial curve]",
CCCc1cc2c(c(NC(C)=O)n1)c(=O)oc1ccccc12,"inconclusive [inhibitor, full curve, poor fit]",
Cc1ccc(S(=O)(=O)N2CCCCC2)cc1NC(=O)Cn1ncc(Cl)c(Cl)c1=O,active: 2.06 µM,
C[C@@H]1CN([C@@H](C)CO)C(=O)CCCn2cc(nn2)CO[C@H]1CN(C)S(=O)(=O)c1ccc(-c2ccccc2)cc1,active: 6.51 µM,
COc1ccc2c(CNCc3cccs3)c(C(=O)O)n(Cc3cccc(F)c3)c2c1,"inconclusive [inhibitor, partial curve]",
CC1CCC(NC(=O)c2nn(C)c3c2CS(=O)(=O)c2ccccc2-3)CC1 (centres undefined),"inconclusive [inhibitor, partial curve, poor fit]",
COc1ccc(NC(=O)c2cc(C(C)=O)n3ccccc23)cc1Cl,"inconclusive [inhibitor, single point]",
CCn1c(SCC(=O)NC2CCCC2)nnc1-c1c[nH]c2ccccc12,"inconclusive [inhibitor, partial curve]",
COc1ccc(NC(=S)N2CCCN(Cc3cccc(Cl)c3)C2)cc1,active: 16.4 µM,
Cc1ccc(S(=O)(=O)N(C)C)cc1[N+](=O)[O-],,inconclusive: -32.3% [inhibitor]
CCOC(=O)c1cccc(NC(=O)C2CCN(S(=O)(=O)c3c(C)noc3/C=C/c3ccc(C)cc3)CC2)c1,active: 11.6 µM,
CN(C)C(=O)/C(=C\c1ccc(-c2cccc([N+](=O)[O-])c2)o1)NC(=O)c1ccccc1,active: 16.4 µM,

Structure (SMILES),Potency,"activity change, negative = growth inhibition"
CCOc1ccc(/C=N/NC(=S)NC2CC3CCC2C3)cc1 (centres undefined),"inconclusive [inhibitor, single point]",
CCC1Nc2ncnc(N3CCCCC3)c2N(Cc2ccc(Cl)cc2)C1=O (centres undefined),"inconclusive [inhibitor, single point]",inconclusive: -31% [inhibitor]
CN1C(=S)N(c2cccnc2)C(=O)/C1=C\c1ccc(C(C)(C)C)cc1,active: 14.6 µM,
CCCCCCn1c(CN2CCN(CCO)CC2)nc2c1c(=O)n(C)c(=O)n2C,,inactive: -5.15%
COc1ccc(CCC(=O)Nc2nnc(C(F)(F)F)s2)cc1,,inactive: -1.4%
CC1(NC(=O)c2ccccc2)CCN(CCCc2ccccc2)C1=O (centres undefined),active: 4.61 µM,
COc1ccc(S(=O)(=O)N2CCOCC2)cc1NC(=O)COC(=O)c1ccc([N+](=O)[O-])s1,,inactive: -1.07%
COc1cc(/C(O)=C(\C#N)c2nc3ccccc3[nH]2)cc(OC)c1OC,active: 13 µM,
Cc1cccc(N=C2NC(=O)S/C2=C\c2ccco2)c1,,inconclusive: -34% [inhibitor]
CC(CNC(=O)c1ccc2nc(CCc3ccccc3)oc2c1)c1ccccc1 (centres undefined),"inconclusive [inhibitor, single point]",
Cc1ccc(NC(=O)c2c(C)nc3sc(C(=O)NC4CCCC4)c(N)c3c2-c2ccco2)c(C)c1,active: 5.17 µM,
CC1CCc2c(sc(N)c2C(=O)OC(C)C)C1 (centres undefined),"inconclusive [inhibitor, single point]",
Cc1ccc(NS(=O)(=O)c2ccc(C(=O)NCC(c3ccco3)N(C)C)cc2)cc1 (centres undefined),"inconclusive [inhibitor, partial curve]",
O=C1NC(c2ccc(-c3ccccc3[N+](=O)[O-])o2)C(C(=O)c2ccccc2)C(O)(C(F)(F)F)N1 (centres undefined),"inconclusive [inhibitor, single point]",
Cc1c(NC(=O)C(C)Oc2cccc(F)c2)c(=O)n(-c2ccccc2)n1C (centres undefined),,inactive: 18.5%
CC(OC(=O)C1CC2CCCC(C1)C2=O)C(=O)Nc1cccc([N+](=O)[O-])c1 (centres undefined),"inconclusive [inhibitor, single point]",
CCn1c(=O)n(-c2ccc3c(c2)OCO3)c2nc(-c3cc(OC)ccc3OC)nc(C(N)=O)c21,,inactive: -15.5%
COc1ccc(CNC(=O)Cn2ccc3cc(S(=O)(=O)N4CCCC4)ccc32)c(OC)c1,"inconclusive [inhibitor, single point]",
CCN(CC)CCN(C(=O)C1CCCCC1)c1nc2cc3c(cc2s1)OCO3,"inconclusive [inhibitor, partial curve]",
Cc1cccc(NC(=O)C2CCCN(S(=O)(=O)c3cccc4nsnc34)C2)c1 (centres undefined),"inconclusive [inhibitor, single point]",
Cc1cccc(C(=O)Nc2ccc3nc(SCC(=O)N4CCc5ccccc54)sc3c2)c1,active: 4.61 µM,
